# Test results published in the supplement of paper PMC3334620.
# The full ranking holds about 33,000 sequences; the median of “E-score (-0.5 to 0.5)” is about -0.035, and the highest 2% start at about 0.35. The list shows a part of the results.
# Biological target: T1, Pdr3 (UniProt P33200)
# T1 sequence: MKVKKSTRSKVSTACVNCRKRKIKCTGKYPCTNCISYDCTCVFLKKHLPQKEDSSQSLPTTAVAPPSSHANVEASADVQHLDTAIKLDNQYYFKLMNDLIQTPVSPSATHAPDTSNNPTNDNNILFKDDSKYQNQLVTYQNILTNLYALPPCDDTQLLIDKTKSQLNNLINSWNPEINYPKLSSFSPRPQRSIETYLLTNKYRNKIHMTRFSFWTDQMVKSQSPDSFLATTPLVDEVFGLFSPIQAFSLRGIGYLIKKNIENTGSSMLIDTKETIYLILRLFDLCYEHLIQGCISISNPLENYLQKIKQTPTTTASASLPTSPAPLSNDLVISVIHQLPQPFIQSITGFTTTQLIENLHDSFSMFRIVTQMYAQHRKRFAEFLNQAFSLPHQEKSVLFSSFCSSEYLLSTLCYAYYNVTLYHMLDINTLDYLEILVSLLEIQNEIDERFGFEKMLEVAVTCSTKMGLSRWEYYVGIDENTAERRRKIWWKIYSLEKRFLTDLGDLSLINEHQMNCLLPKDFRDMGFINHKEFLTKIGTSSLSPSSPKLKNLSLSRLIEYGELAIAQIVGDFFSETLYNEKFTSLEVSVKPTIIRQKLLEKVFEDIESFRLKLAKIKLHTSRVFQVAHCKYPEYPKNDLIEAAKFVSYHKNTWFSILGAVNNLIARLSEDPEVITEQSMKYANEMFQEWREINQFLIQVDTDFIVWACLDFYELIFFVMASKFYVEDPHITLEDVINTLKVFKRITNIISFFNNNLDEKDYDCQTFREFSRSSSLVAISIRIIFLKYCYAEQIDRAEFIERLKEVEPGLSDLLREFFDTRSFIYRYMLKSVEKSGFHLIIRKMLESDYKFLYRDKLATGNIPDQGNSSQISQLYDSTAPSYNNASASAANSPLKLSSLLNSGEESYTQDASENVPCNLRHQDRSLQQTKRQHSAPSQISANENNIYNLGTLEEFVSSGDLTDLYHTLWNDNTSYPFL
# Assay: PBM E-score (8-mer binding enrichment) (E-score (-0.5 to 0.5)); higher = stronger / more preferred TF binding; most listed sequences are background and not binding sites
# Conditions: protein concentration: 200 nM; construct: GST-full length
# Description: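 Universal 'all 10-mer' protein binding microarrays (Agilent AMADID 015681) probed with GST-tagged S. cerevisiae TFs (full-length or DBD) made by in vitro transcription/translation (PURExpress), about 100-200 nM. Bound TF was detected with fluorescent anti-GST. Each ungapped 8-mer (which stands for itself and its reverse complement) is scored by the PBM enrichment score (E-score), a modified Wilcoxon-Mann-Whitney statistic from -0.5 to +0.5, computed with the Universal PBM Analysis Suite. Scale: above 0.35 generally sequence-specific binding.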
row,Sequence,PBM E-score
1,ACATACAT,0.0484
2,GCCGGAAC,0.476
3,ACATTTCA,0.0369
4,ATAGTTCA,0.0132
5,ATAATGCA,-0.184
6,AATCCCGA,0.358
7,ACACCCGG,0.291
8,AGTTGCAT,0.0468
9,CGTCTGCC,0.0736
10,ATTCTTGC,0.0442
11,GCTCGGAC,0.297
12,ATAGCAGA,-0.0936
13,AAGCCGCA,0.112
14,AGCCAAGC,-0.227
15,GCTCTCAA,0.0132
16,GATTCCCC,0.0929
17,AACTGTTG,-0.0404
18,GAAGTCGA,0.0196
19,ATGGTTTG,0.0993
20,GAAAGGCC,0.0228
21,GGGAACCA,-0.0124
22,GGGGACTA,-0.208
23,CTGGTACA,-0.207
24,CAAAACAG,-0.103
25,CTAGATAC,0.0838

row,Sequence,PBM E-score
1,AATCGGAG,0.276
2,CAAGACAA,0.0377
3,AAAACTAT,-0.0359
4,AGTAAAGA,0.041
5,AATTTATC,0.273
6,ACCTGGAC,-0.0916
7,GAACACCC,0.1
8,GCGACAGA,0.0984
9,TTGTACAA,-0.294
10,AGGTAAAA,-0.157
11,GCAGCTGA,0.105
12,AATCTTTG,-0.166
13,CTACAAAA,0.0915
14,TGCTCCCA,-0.0732
15,GGGTGCCA,0.00823
16,CTAGGTCC,0.0472
17,AGCCACCG,0.0963
18,ACGCAGGC,-0.0957
19,AAGTCCTG,-0.175
20,TAAGGTGA,-0.101
21,CGAAGTAG,0.0985
22,ATATTAAA,0.238
23,CTTTACGA,-0.218
24,CGGTACCA,0.0596
25,AAAAAGGA,-0.0374

row,Sequence,PBM E-score
1,TGTTAAAA,-0.16
2,CCTGAAGC,-0.341
3,CTCAGGTA,-0.138
4,ACGGCTCC,0.227
5,ATTAATAC,0.186
6,GAGGCCTC,-0.116
7,ACAACGAC,-0.00083
8,CCTAGGCA,-0.08
9,ACGTTAGC,-0.0209
10,ATGTACTG,-0.138
11,CAGTAAAC,-0.0301
12,CGGCTGAG,0.0831
13,CTCCCGAG,0.0556
14,CGAGTGCA,0.0689
15,AGCTTATC,0.126
16,GCGGTGGA,0.129
17,AGGCGGAT,0.251
18,CCTTACTC,0.217
19,ATTGCGAC,0.197
20,CACTTCTC,-0.121
21,GGTGAGCA,-0.179
22,CATAGCAA,-0.108
23,CTCGTAAG,-0.0204
24,GCATGTAC,-0.133
25,ACTTAGTC,-0.121

row,Sequence,PBM E-score
1,TCTAGCAA,-0.14
2,CGTCCTTC,0.0824
3,AGAAAGGC,-0.119
4,CGTATAGA,-0.231
5,GCATCTAA,0.0131
6,CACGGAAC,0.483
7,ATTCCGAA,0.436
8,CCCTATCG,-0.0588
9,ATGGGAAC,0.0766
10,GGAGAGAC,0.0135
11,AGCTTGTA,-0.186
12,ACTTAGAC,-0.156
13,GCCCTACA,-0.0817
14,ATAAAGAT,-0.00554
15,ACTTAAAT,-0.221
16,ACTGTAAG,0.135
17,TATAGTGA,-0.169
18,TCGTAGCA,-0.11
19,GTGTTAAC,-0.159
20,CGCCCACC,-0.0811
21,CACGTTTC,0.00301
22,ATCACTGG,-0.0407
23,ATGCTCAA,-0.0315
24,ATCTTGCG,0.0369
25,ACGCAGTA,-0.0886

row,Sequence,PBM E-score
1,GGATGTCA,0.115
2,CTCTGCTA,-0.194
3,CCGTGAGA,0.11
4,CATCATAG,-0.104
5,CCTACCAC,-0.189
6,ATAGCGGG,0.0639
7,GGACACAA,0.2
8,CAGTCGCG,0.00906
9,ACCGGATG,0.249
10,AGGATGAT,-0.0997
11,CGACGCGA,0.112
12,GGCATCCC,-0.0106
13,GGCTCAGA,-0.0859
14,CCGGGTCG,0.378
15,CGGCAAGA,0.129
16,ACGGTGCT,-0.138
17,GGCACTAA,0.156
18,CTTGTAGC,-0.0878
19,ACGCGGAC,0.229
20,GCTGGTAC,0.029
21,CCACGCCA,-0.223
22,GTCGTAGA,-0.0356
23,AGCCCCCT,-0.371
24,CATCCAGA,-0.121
25,CCACACAA,-0.217

row,Sequence,PBM E-score
1,CGTGGTGA,-0.0889
2,ACTAGCAA,-0.0343
3,CGGCGCGA,0.217
4,AGCCCACT,-0.181
5,ACCCGATA,0.158
6,CAACCTTC,-0.139
7,AGTAAGCA,-0.258
8,GCTTTTCC,0.142
9,TCTCGCAA,-0.0666
10,GAGCATCA,-0.157
11,TCTGATCA,-0.00344
12,GAGGGCTA,-0.298
13,AGCTCCTA,-0.135
14,CTATGCGC,0.138
15,AGCCGTCC,0.188
16,ACATCCAC,-0.04
17,AAAAATAG,0.00396
18,AATGGTAC,-0.238
19,GGTGCTGA,-0.104
20,GAGTGTTA,0.0189
21,ACTTTGAT,0.00528
22,AAAGTACA,-0.103
23,ATTCCAGG,-0.00904
24,AACCCCAA,0.0286
25,ACCTGTAC,-0.201

row,Sequence,PBM E-score
1,AGACCTCG,0.0431
2,CCCGTCCA,0.0664
3,GATAAGTA,0.0326
4,CCATAGTC,-0.138
5,GAATGGTC,0.18
6,ACAATGGT,-0.142
7,AAGCGATT,-0.0256
8,CGAACGAC,-0.0461
9,CCTGACAA,-0.14
10,TACGGCAA,-0.034
11,AGGCTGTC,-0.152
12,CCAGGGTC,-0.2
13,GATCCGCA,0.319
14,CCCGCATC,0.0416
15,ACTTCGTG,-0.101
16,CGAAAATC,0.027
17,TATCGTCA,-0.162
18,ACGCGGCT,-0.0608
19,AGCTACAT,-0.251
20,AGTACCTG,-0.176
21,CCATTCTA,-0.142
22,TCAAGCAA,-0.125
